The list shows a part of the results. Sequences were assembled here from the parent chain. Values near 0.05 are background.
B1: TEV protease; numbered along this chain (parent)
chain: MGESLFKGPRDYNPISSSICHLTNESDGHTTSLYGIGFGPFIITNKHLFRRNNGTLVVQSLHGVFKVKDTTTLQQHLVDGRDMIIIRMPKDFPPFPQKLKFREPQREERICLVTTNFQTKSMSSMVSDTSCTFPSGDGIFWKHWIQTKDGQCGSPLVSTRDGFIVGIHSASNFTNTNNYFTSVPKNFMELLTNQEAQQWVSGWRLNADSVLWGGHKVFMVKPEEPFQPVKEATQL

Variants of: B1
Assay: raw area under fraction-flipped curve 0-4 h after induction (AUC4h, not background-subtracted), DNA-recorder readout of cleavage of the substrate (dimensionless); higher = more cleavage of the substrate by the protease variant
Settings: temperature: 34 °C; time window: 0-4 h after rhamnose induction
Experimental: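 In vivo DNA recorder in E. coli TOP10(DE3) ΔrhaA at 34 °C. Each TEVp single-site mutant (parent TEVp 0) is paired with a single-site variant of the 7-mer TEVs (canonical ENLYFQ|S). The substrate sits between flexible linkers in a Bxb1-sfGFP-TEVs-SsrA fusion, so cleavage stabilises Bxb1 and speeds flipping of a recombination array, read by NGS. The value is the raw area under the fraction-flipped curve over 0-4 h after rhamnose induction (AUC4h), with ≥20 reads per time point. It is not background-subtracted; inactive controls average about 0.047.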
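Note: Bxb1 expression induced with 0.2% (w/v) L-rhamnose at OD600 near 0.5, cultures sampled hourly, flipped fraction per protease–substrate barcode pair counted by paired-end Illumina sequencing.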

Row | Variant | area with substrate ENLAFQS | area with substrate ENLCFQS | area with substrate ENLDFQS | area with substrate ENLEFQS | area with substrate ENLFFQS | area with substrate ENLGFQS | area with substrate ENLHFQS | area with substrate ENLIFQS | area with substrate ENLKFQS | area with substrate ENLLFQS | area with substrate ENLMFQS | area with substrate ENLNFQS | area with substrate ENLPFQS | area with substrate ENLQFQS | area with substrate ENLRFQS | area with substrate ENLSFQS | area with substrate ENLTFQS | area with substrate ENLVFQS | area with substrate ENLWFQS
1 | S169Q | 0.0607 | 0.0436 | 0.0625 | 0.0633 | 0.0505 | 0.0568 | 0.0568 | 0.0565 | 0.0634 | 0.0625 | 0.0425 | 0.0646 | 0.0528 | 0.0669 | 0.0608 | 0.0621 | 0.0488 | 0.0704 | 0.034
2 | A170M | 0.0242 |  |  |  | 0.061 |  |  | 0.0526 | 0.0385 |  |  |  |  |  |  |  |  |  | 
3 | S171D | 0.037 |  |  | 0.0693 | 0.0631 | 0.0612 | 0.0606 | 0.0719 | 0.059 |  | 0.072 | 0.0528 |  | 0.0728 | 0.0567 | 0.0702 | 0.0659 |  | 0.0565
4 | S171P | 0.0595 |  | 0.0501 | 0.0586 | 0.0581 | 0.0651 | 0.0705 | 0.0504 | 0.0574 |  |  | 0.0505 | 0.0665 |  | 0.058 |  |  | 0.0533 | 0.0693
5 | F173G | 0.072 |  | 0.0602 | 0.0519 | 0.0643 |  | 0.0609 |  | 0.0651 | 0.0693 | 0.0521 | 0.0619 |  | 0.0407 | 0.061 | 0.0567 |  | 0.0699 | 
6 | F173W | 0.0533 |  | 0.0641 | 0.062 |  |  | 0.0683 |  | 0.0631 | 0.0668 |  | 0.0635 |  |  | 0.0607 | 0.0654 |  |  | 
7 | N175V | 0.0524 | 0.0679 | 0.0781 |  | 0.0667 |  | 0.0607 | 0.0342 | 0.0273 | 0.0483 | 0.0593 | 0.0616 | 0.0447 | 0.0573 | 0.066 | 0.0497 |  | 0.0696 | 0.0652
8 | N177K | 0.0634 | 0.0671 | 0.063 |  | 0.08 | 0.0638 | 0.0663 |  |  |  |  | 0.0588 | 0.0609 |  |  |  |  | 0.0751 | 
9 | N178V | 0.0565 | 0.0538 | 0.0452 | 0.0652 | 0.071 |  | 0.0448 | 0.0335 |  |  | 0.0711 | 0.0645 |  |  | 0.0611 | 0.0535 |  | 0.044 | 
10 | Y179N | 0.0557 |  | 0.0508 |  |  |  |  |  | 0.0635 |  |  | 0.0677 |  |  |  |  |  |  | 
11 | F180R | 0.0471 | 0.0564 | 0.046 |  | 0.0582 |  | 0.0879 | 0.0406 | 0.0466 |  |  | 0.0647 |  | 0.0487 |  | 0.0357 |  |  | 0.0771
12 | T181R | 0.0533 | 0.0239 | 0.0538 | 0.0673 | 0.0554 | 0.0715 | 0.0398 |  | 0.0527 | 0.0442 | 0.0483 | 0.0658 |  |  | 0.0485 | 0.0543 |  |  | 0.0464
13 | S182G | 0.0507 | 0.0752 | 0.0673 |  | 0.0815 |  |  | 0.0823 |  |  |  | 0.038 |  |  |  | 0.0565 |  |  | 
14 | S182L | 0.0653 | 0.0534 |  |  | 0.0618 |  | 0.0616 |  | 0.0508 | 0.0492 |  | 0.0566 | 0.0535 |  |  | 0.0518 | 0.05 |  | 0.0521
15 | S182Q | 0.0609 | 0.0503 | 0.064 | 0.0579 | 0.0467 |  | 0.0523 | 0.0511 | 0.0708 | 0.062 |  | 0.0612 | 0.0378 |  | 0.0681 | 0.0581 |  | 0.0721 | 0.0469
16 | V183S | 0.0518 | 0.0599 | 0.0428 | 0.0665 | 0.0958 |  |  |  | 0.071 |  | 0.0669 |  |  | 0.0598 | 0.0564 |  |  |  | 
17 | P184D | 0.0524 | 0.044 | 0.0512 | 0.0598 |  | 0.0627 |  |  | 0.0648 |  |  | 0.0581 | 0.0561 | 0.0377 | 0.0715 | 0.0904 |  |  | 
18 | K185Q | 0.0872 |  | 0.0661 |  | 0.111 |  | 0.0717 | 0.0739 | 0.0791 | 0.081 |  | 0.0648 | 0.0666 |  | 0.14 | 0.0691 |  | 0.0859 | 0.073
19 | N186I | 0.0508 | 0.0761 | 0.048 |  |  | 0.0709 | 0.0688 | 0.0761 | 0.0766 | 0.0667 |  | 0.0415 |  |  | 0.0617 |  |  |  | 
20 | M188D | 0.0623 | 0.0858 | 0.0531 | 0.0592 | 0.117 | 0.0673 | 0.0681 | 0.0902 | 0.0844 | 0.0627 | 0.0495 | 0.0604 | 0.0569 |  | 0.0569 | 0.0522 |  | 0.0867 | 
21 | E189H | 0.0658 |  | 0.0566 | 0.0617 | 0.0885 | 0.0477 | 0.0721 |  | 0.0812 | 0.0631 |  |  | 0.0619 |  |  | 0.0653 |  |  | 0.0621
22 | E189P | 0.0675 | 0.0606 |  | 0.0711 | 0.0998 |  | 0.0632 | 0.067 | 0.0704 | 0.0743 |  |  | 0.0632 | 0.0671 |  | 0.0691 |  | 0.0619 | 0.0618
23 | E189R | 0.0692 |  | 0.061 | 0.0563 | 0.0796 |  | 0.0593 | 0.0655 | 0.0687 |  |  | 0.0658 |  |  | 0.067 | 0.0588 |  |  | 
24 | L190C | 0.061 | 0.0676 | 0.0719 |  |  | 0.0541 | 0.0732 | 0.081 | 0.0709 |  |  | 0.0864 | 0.0619 |  |  | 0.0613 |  | 0.1 | 
25 | L190E | 0.0867 |  | 0.0613 | 0.0718 | 0.0761 |  | 0.0917 |  | 0.0721 | 0.0697 |  | 0.0683 |  |  | 0.0776 | 0.0558 |  | 0.0793 | 0.0731
26 | L191V | 0.0588 |  | 0.0698 |  | 0.0669 |  | 0.0617 | 0.0712 | 0.0742 | 0.0784 | 0.0665 | 0.0766 | 0.0778 | 0.0656 |  | 0.058 | 0.0548 |  | 0.0687
27 | N193E | 0.0465 | 0.0689 |  |  | 0.0927 | 0.07 | 0.078 | 0.0662 | 0.081 |  |  | 0.0737 | 0.0485 | 0.0694 | 0.0675 |  |  |  | 0.0538
28 | N193W | 0.0702 |  |  | 0.06 |  |  |  |  | 0.0663 |  | 0.064 | 0.0505 | 0.0698 |  | 0.0707 | 0.0471 |  |  | 
29 | Q194M | 0.0519 | 0.077 | 0.063 | 0.0735 | 0.101 |  | 0.0813 | 0.0702 | 0.077 | 0.0707 |  | 0.0703 |  | 0.0736 | 0.0908 |  |  |  | 
30 | A196R | 0.0894 |  |  |  |  |  |  |  | 0.0836 |  |  |  |  |  |  | 0.0443 |  | 0.0799 | 0.0455
